The campaign covered roughly 310,000 compounds. About 2,200 (0.71%) showed an effect of 50% or more. Effects have a minus sign here. Some of the results follow.
What follows are compounds tested against human ether-à-go-go-related gene (hERG) potassium channel (human, UniProt Q12809) (assay: primary screen, population patch clamp on CHO cells stably expressing hERG).
human ether-à-go-go-related gene (hERG) potassium channel, sequence (Q12809 whole entry, looked up): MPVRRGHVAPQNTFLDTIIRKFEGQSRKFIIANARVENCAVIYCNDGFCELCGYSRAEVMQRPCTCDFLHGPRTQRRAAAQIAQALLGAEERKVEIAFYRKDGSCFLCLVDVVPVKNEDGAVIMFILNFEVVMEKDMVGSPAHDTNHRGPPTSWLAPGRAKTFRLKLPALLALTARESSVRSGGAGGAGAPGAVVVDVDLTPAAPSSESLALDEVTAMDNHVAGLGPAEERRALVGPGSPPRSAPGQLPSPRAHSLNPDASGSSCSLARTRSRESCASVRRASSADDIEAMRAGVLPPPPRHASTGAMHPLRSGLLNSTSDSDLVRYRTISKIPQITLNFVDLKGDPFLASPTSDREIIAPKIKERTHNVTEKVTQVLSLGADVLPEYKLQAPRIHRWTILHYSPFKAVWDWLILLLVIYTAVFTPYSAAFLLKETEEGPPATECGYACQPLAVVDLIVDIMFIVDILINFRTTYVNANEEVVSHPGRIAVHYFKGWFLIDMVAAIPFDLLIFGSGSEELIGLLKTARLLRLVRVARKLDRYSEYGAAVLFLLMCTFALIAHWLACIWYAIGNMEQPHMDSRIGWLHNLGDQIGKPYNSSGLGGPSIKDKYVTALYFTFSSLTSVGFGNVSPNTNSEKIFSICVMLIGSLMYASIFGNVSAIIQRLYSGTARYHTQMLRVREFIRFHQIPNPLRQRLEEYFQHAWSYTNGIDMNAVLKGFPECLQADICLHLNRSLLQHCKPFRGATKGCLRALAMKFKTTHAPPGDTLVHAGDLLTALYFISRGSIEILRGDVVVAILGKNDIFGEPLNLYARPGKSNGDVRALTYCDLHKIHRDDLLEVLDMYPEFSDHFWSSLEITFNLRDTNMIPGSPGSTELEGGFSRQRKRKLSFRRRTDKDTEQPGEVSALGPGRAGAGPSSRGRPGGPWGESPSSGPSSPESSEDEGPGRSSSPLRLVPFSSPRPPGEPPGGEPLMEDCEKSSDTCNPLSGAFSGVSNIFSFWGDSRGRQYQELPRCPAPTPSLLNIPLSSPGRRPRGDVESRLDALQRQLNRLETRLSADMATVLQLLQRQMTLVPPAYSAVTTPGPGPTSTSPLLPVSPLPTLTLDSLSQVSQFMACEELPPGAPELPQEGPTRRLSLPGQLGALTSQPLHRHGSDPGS

Structure (SMILES) | hERG current change (%, negative = inhibition) at 1uM
COc1cccc(/C=N/Nc2nc3ccccc3[nH]2)c1O | 10.7%
O=C(NCc1ccc(Cl)cc1)C(=O)NCC1OCCN1S(=O)(=O)c1cc(F)ccc1F (stereo not shown) | 14.3%
O=C(NCCc1ccccc1)Oc1ccc(Cl)cc1 | 11.1%
Cc1ccc(C)c2sc(N3CCN(C(=O)c4ccc([N+](=O)[O-])o4)CC3)nc12 | -5.85%
COc1ccc(CCN(C(=O)COc2ccccc2)c2nc(-c3ccccc3)cs2)cc1OC | 3.77%
COc1cc(NC(=O)Cn2cnc3ccccc3c2=O)c(OC)cc1Cl | 14.1%
Cc1noc(NS(=O)(=O)c2ccc(NC(=O)C(CC(C)C)N3C(=O)c4ccccc4C3=O)cc2)c1C (stereo not shown) | 10.9%
Cc1ccc(OCC(=O)c2cc(C)n(C)c2C)c([N+](=O)[O-])n1 | -3.31%
Cc1ccc(S(=O)(=O)N(C)c2ccc(OCC(=O)Nc3nc4ccccc4s3)cc2)cc1 | 16.3%
O=C(CSc1ccc2c(c1)OCCO2)NCCN1C(=O)CSC1=O | 12.8%
COc1ccc2oc(C(=O)OCC(=O)NC(C)c3ccccc3)c(C)c2c1 (stereo not shown) | -10.5%
Clc1ccc2c(c1)Nc1ccccc1CC2 | 6.15%
O=C(O)CCC(=O)Nc1ccc(C(=O)OC2CCCCC2)cc1 | 10.7%
Cc1ccc(NS(=O)(=O)c2ccc(C(=O)N3CCCN(C)CC3)cc2)cc1 | -0.822%
CCCOc1ccc(N2C(=O)CC(N3CCN(c4ccccc4F)CC3)C2=O)cc1 (stereo not shown) | 5.47%
COc1ccc(CCNC(=O)c2ccc3nc4cc(Cl)ccc4c(=O)n3c2)cc1OC | 11.7%
Cc1ccccc1CSc1ccc2nnc(-c3ccccn3)n2n1 | -50.9%
CC#CC[N+](C)(CC#CC)CC(=O)c1ccccc1.[Br-] | 17.9%
O=C(CNC1CCCCCC1)Nc1ccccc1N1CCCCC1.O=C(O)C(=O)O | 14.9%
Cc1nn(-c2ccccc2)cc1/C=N/O | 4.39%
O=c1cc(O)c2sc(Nc3cccc(C(F)(F)F)c3)nc2[nH]1 | 3.21%
COc1cc(C2CC(=O)Oc3c2c(=O)n(C)c2ccccc32)cc(OC)c1OC (stereo not shown) | 9.93%

Structure (SMILES) | hERG current change (%, negative = inhibition) at 1uM
Cn1ncc(Cl)c1C(=O)N/N=C/c1cc2c(cc1[N+](=O)[O-])OCO2 | 0.963%
CC(C)c1nc2c(c(=O)n(C)c(=O)n2C)n1C | 3.41%
CC(C)N(CCNC(=O)c1ccc(NC2=NC3CS(=O)(=O)CC3S2)cc1)Cc1ccco1 (stereo not shown) | 12.1%
O=C(NCC12CC3CC(CC(C3)C1)C2)c1nn2cccnc2c1Cl | 7.53%
COC(=O)c1ccc(/C=N/NC(=O)c2ccccc2Cl)cc1 | 13.7%
O=C(COc1ccc(-c2ccccc2)cc1)Nc1cccnc1 | 6.87%
CC(C)(C)n1nnnc1C(c1ccncc1)N1CCN(c2ccc(O)cc2)CC1 (stereo not shown) | 9.15%
CC1=C(C(=O)OCc2ccccc2)C(c2ccc(Cl)cc2)NC(=O)N1CCCCCC(=O)O (stereo not shown) | 15.4%
Cc1cc(O)c(C(=O)/C=C/c2c(F)c(F)c(F)c(F)c2F)c(=O)o1 | 16.1%
CCOc1ccc(NC(=O)c2ccccc2NS(=O)(=O)c2ccc(F)cc2)c([N+](=O)[O-])c1 | 14.2%
N#CCCN(C(=O)COC(=O)c1ccc2c(c1)NC(=O)CS2)c1ccc2c(c1)OCCO2 | 3.71%
COc1ccccc1C(=O)N=C1SC2CS(=O)(=O)CC2N1c1ccccc1 (stereo not shown) | 12.7%
COc1ccc(N(C(=O)CNC(=O)c2cccs2)C(C(=O)NC2CCCC2)c2ccncc2)cc1 (stereo not shown) | 3.16%
CCC(C)N(C(=O)CN1C(=O)NC2(CCc3ccccc32)C1=O)C1CCS(=O)(=O)C1 (stereo not shown) | 9.15%
Cc1cc(C)cc(NC(=S)NCCSc2ccc(Cl)cc2)c1 | 4.41%
COc1ccc(-c2cc(-c3ccccc3)c(C#N)c(SCC(=O)Nc3ncc(C)s3)n2)cc1 | 17.9%
O=C(N/N=C\c1ccc(OC(=O)c2ccco2)cc1)c1ccc(Cl)cc1 | 7.3%
Nc1ccc(C(=O)N/N=C\c2ccc(OC(=O)c3ccccc3Cl)cc2)cc1 | 14.1%
CCc1ccc(NC(=O)c2ccc(-n3cncn3)c([N+](=O)[O-])c2)cc1 | -5.68%
COc1ccc(C(=O)CCC(=O)O)cc1 | 5.41%
O=S(=O)(c1ccc(N2CCOCC2)nc1)N1CCOCC1 | 3.63%
O=C(O)C(=O)O.c1ccc(COc2ccc(OCCCNC3CCCC3)cc2)cc1 | 8.41%

Structure (SMILES) | hERG current change (%, negative = inhibition) at 1uM
Cc1ccc(S(=O)(=O)NCCNC(=O)N2CCOCC2)cc1 | 13%
CC(C)COc1nc2ccccc2nc1N1CCN(C)CC1 | -0.839%
CC(=O)Nc1cccc(C(=O)OCC(=O)NC(C)c2ccc(F)cc2)c1 (stereo not shown) | 16.1%
N#Cc1ccccc1NC(=O)CC1c2ccccc2Oc2ccccc21 | 2.03%
COc1ccc(NC(=O)C(=O)Nc2cccc3cccnc23)c(OC)c1 | 16.9%
COc1cc2c(cc1OC)C(c1ccccc1F)NCC2 (stereo not shown) | 11.9%
CC(C)(c1ccccc1)c1ccc(OCCN2CCOCC2)cc1.Cl | 8.5%
CCc1cccc(CC)c1NC(=S)NCc1ccc2[nH]c(C)cc2c1 | 12%
O=C(O)CCc1nn2c3ccccc3n(Cc3ccccc3F)c2nc1=O | 19.7%
C/C(=N\NC(=O)c1ccc(CSc2nc(C)cc(C)n2)cc1)C1CCCCC1 | 8.81%
Cn1ncc(Cl)c1C(=O)Nc1sc2c(c1C(N)=O)CCC2 | 1.63%
COC(=O)c1ccc(CN2CCN(C(C)C)C(CCO)C2)cc1 (stereo not shown) | 8.95%
CN(C)c1cccc(C(=O)NC2CCCCCC2)c1 | 11.9%
O=c1c(-c2ccccc2)c(O)c2c(n1-c1ccccc1)CCCC2 | 9.96%
COC(=O)C1=C(c2ccc(F)cc2OCc2ccccc2)C[C@@H]2CC[C@H]1N2C(=O)NCc1ccc(Cl)cc1 | 14.6%
CCOP(=O)(Oc1ccccc1)c1c([N+](=O)[O-])cc(C(F)(F)F)cc1[N+](=O)[O-] (stereo not shown) | 11.3%
O=C1CCN(S(=O)(=O)c2cc(C(F)(F)F)ccc2Cl)CC1 | 9.34%
Cc1[nH]n(-c2ccccc2)c(=O)c1/C=N/NC(=O)COc1ccccc1[N+](=O)[O-] | 15.1%
Cc1ccc(S(=O)(=O)C2(C(=O)Nc3nccs3)CC2)cc1 | 5.91%
CC(C)CC(C(=O)NC1CCCCC1)N(Cc1ccccc1)C(=O)c1snc(C(N)=O)c1N (stereo not shown) | 11.4%
O=C(c1cccc(NS(=O)(=O)c2ccccc2)c1)N1CCCC1 | 9.16%
O=C(Cn1ncn2c(cc3ccccc32)c1=O)NCCCc1ccccc1 | 14.7%

Structure (SMILES) | hERG current change (%, negative = inhibition) at 1uM
CN(C)N1C(=O)CC(N2CCCCC2)C1=O (stereo not shown) | 14.7%
Cc1nc2ccc(NC(=O)c3nn(CC(C)C)c(=O)c4ccccc34)cc2s1 | -3.68%
CC(C)COc1cccc(C(=O)NC(=S)Nc2cccc(NC(=O)c3ccccc3Cl)c2)c1 | 12.5%
[O-][Cl+3]([O-])([O-])[O-].c1ccc(-c2nc(N3CCOCC3)s[n+]2-c2ccccc2)cc1 | 11.3%
Cc1cc(=O)[nH]c(N2CCN(C(c3ccccc3)c3ccccc3)CC2)n1 | 14.8%
CN(C)c1ccc(C2Nc3ccccc3C(=O)N2NS(=O)(=O)c2ccccc2)cc1 (stereo not shown) | 13.4%
COCC(C)n1c(SCC(=O)Nc2ccc3c(c2)OCCO3)nc2ccccc2c1=O (stereo not shown) | 7.34%
S=C(Nc1ccccc1)N1CCCCCCC1 | 11.1%
CN(C)c1ccc(N2C(=NC(=O)CCC3CCCC3)SC3CS(=O)(=O)CC32)cc1 (stereo not shown) | 13.1%
O=C(NCCC1CCCCN1S(=O)(=O)c1ccccc1)C(=O)NCc1ccccn1 (stereo not shown) | 5.23%
COc1ccc(C)cc1NC(=S)NC(C)c1ccc(OC)c(OC)c1 (stereo not shown) | 2.73%
COCCCNS(=O)(=O)c1ccc(Oc2ncc(C(F)(F)F)cc2Cl)cc1 | 11.4%
O=C(O)C(=O)O.OC1CCCN(CC(O)COC(c2ccc(F)cc2)c2ccc(F)cc2)C1 (stereo not shown) | -14.2%
Brc1ccc(-c2noc(C3CCCCC3)n2)cc1 | 6.38%
O=C1/C(=C/c2ccccc2Cl)SC(=S)N1CCCC(=O)N(CCO)c1ccccc1 | -0.0098%
COc1cc(OC)cc(C(=O)OCCNC(=O)Cn2cnc3c2c(=O)n(C)c(=O)n3C)c1 | -8.43%
CC(=O)[C@@]1(O)CC[C@H]2[C@@H]3CCC4=CC(=O)CC[C@]4(C)[C@H]3[C@@H](O)C[C@@]21C | 20.7%
COc1cccc(C2=CC(=O)C[C@H](c3ccc4c(c3)OCO4)C2)c1 | 9.04%
COc1cccc(C(=O)Nc2ccc(NC(=O)c3ccco3)c(Cl)c2)c1 | 16.4%

— PMC4336329 (PLoS ONE, 2015)
